Screen size: about 360,000 compounds; about 7,500 (2.1%) were called active. Inconclusive results, whose numbers are uncertain, are shown with a selection of clear calls. Calls follow the shape of the dose curve; as a rule, active = well fitted cell-killing curve with a large enough effect; inconclusive = small, poorly fitted or top-dose-only effect, or effect the other way, or another doubt; inactive = no such curve, though single readings can be large or run the other way. No potency is given beside an inconclusive call; the fits are too rough.
Experiment: qHTS for induction of synthetic lethality in tumor cells producing 2HG: qHTS for the HT-1080-IDH1KD cell line;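 as to activity, negative = toxicity: 0% = DMSO wells and -100% = cell-free medium wells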
Conditions: HT-1080 IDH1 knockdown viability, ATP luminescence, 48 h; activity, negative = toxicity: at 46.1 µM (top of the series) unless noted
Method in brief: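 Luminescent ATP read-out (CellTiter-Glo, 10 min at room temperature) after 48 h compound exposure at 37 °C gave viability of IDH1-knockdown HT-1080 cells. Activity was normalised to DMSO and cell-free wells, then fitted as concentration-response curves.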
Potency is read from the fitted curve at half-maximal effect; tags tell the direction and shape of the fitted curve.

SMILES	Potency	activity, negative = toxicity
COc1ccc(/C=N\N=C2/SC(CC(=O)O)C(=O)N2c2ccc(O)cc2)cc1OC (stereo not given)	inconclusive [rising, partial curve]	
CSc1nnc(-c2ccc(C(F)(F)F)nc2C)o1	inconclusive [rising, single point]	
CC(C)(C)n1nnnc1C(c1ccccc1)N1CCN(c2ncc(C(F)(F)F)cc2Cl)CC1 (stereo not given)	inconclusive [cytotoxic, single point]	
Cc1ccc(Nc2nc(-c3ccc(S(=O)(=O)N4CCCC4)cc3)cs2)cc1C	inconclusive [cytotoxic, single point]	
COc1ccc(OC)c(-c2cc(C(=O)Nc3cc(C)on3)no2)c1	inactive	
Nc1ccccc1C(=O)N1CCCC1	inconclusive [rising, partial curve]	
Cc1ccc(NC2=CC(=O)CC(C)(C)C2)cc1Cl	inconclusive [cytotoxic, single point]	
CCOC(=O)Cn1c(-c2nonc2NC(=O)c2ccccc2F)nc2ccccc21		inconclusive: -33.4% [cytotoxic]
O=C1c2ccccc2C(Nc2cccnc2)N1Cc1ccccc1Cl (stereo not given)	inactive	
CN(CCc1ccccc1)C(c1cc2ccccc2o1)c1nnnn1C(C)(C)C (stereo not given)	inconclusive [cytotoxic, single point]	
O=C(NC(NNc1ccc([N+](=O)[O-])cc1)(C(F)(F)F)C(F)(F)F)c1ccc(Cl)cc1	inconclusive [cytotoxic, single point]	
Cc1cc(C)n(-c2nc(C(F)(F)F)nc3ccccc23)n1	inactive	
COc1cccc(-c2cnc3c(NC(C)=O)cc(-c4ccccc4OC)cn23)c1	inconclusive [cytotoxic, single point]	
COc1cc(C(=O)N(C)Cc2cccc(OC)c2OC)ccc1OCC(=O)Nc1cccc(C(F)(F)F)c1	inconclusive [cytotoxic, partial curve]	
CCN(C[C@H]1N[C@@](CC)(C(=O)OC)[C@H]2C(=O)N(Cc3ccccc3)C(=O)[C@@H]12)C(=O)c1ccc(C(C)(C)C)cc1	active: 20.6 µM	
CC(C)n1c(=NC(=O)c2ccco2)c(C#N)cc2c(=O)n3ccccc3cc21	inconclusive [cytotoxic, single point]	
Cn1cccc1/C=C1\SC(=Nc2cccc(O)c2)NC1=O	active: 14.6 µM	
COCCNc1nc(SCC(=O)N2CCN(c3ccccc3OC)CC2)nc2ccccc12	inconclusive [cytotoxic, single point]	
CCc1nc(N2CCN(S(=O)(=O)c3ccc(Br)cc3)CC2)c2c(C)c(C)sc2n1		inactive: 6.72% [at 9.24 µM]
Cc1ccccc1OCCNc1cc(N2CC(C)NC(C)C2)ccc1[N+](=O)[O-] (stereo not given)	inconclusive [cytotoxic, single point]	
COc1cc(/C=C2\SC(=O)N(CCN)C2=O)ccc1OS(=O)(=O)c1cc(C)ccc1C	inconclusive [cytotoxic, single point]	
Cc1ccc(-n2ncc3c2CC(C)(C)CC3NC(=O)c2ccccn2)cc1 (stereo not given)	inconclusive [cytotoxic, single point]	
CCc1nc2c(OCCC3CCCCC3)cccn2c1N(C)C(=O)C(C)C	inconclusive [cytotoxic, single point]	
O=C(/C=C1\NC2(CCCC2)Cc2ccccc21)N1CCOCC1	inconclusive [cytotoxic, single point]	

SMILES	Potency	activity, negative = toxicity
O=C1C2C(c3ccccc3)CC=CC2[C@H](c2ccc3ccccc3c2)N1Cc1ccccc1 (stereo not given in full)	inactive	
Cc1ccc(-n2c(Cc3cccs3)nnc2SCC(=O)Nc2ccc(F)c(F)c2)cc1	active: 11.2 µM	
CCCCCc1c(-c2ccc(OC)cc2)ncn1CCc1ccccc1OC	active: 16.4 µM	
CCCCN(C(=O)C1=CC=CN2CCS(=O)(=O)N=C12)c1ccccc1	inactive	
CCOc1ccc(C(=O)Nc2cc(C)ccn2)cc1	active: 11.6 µM	
CCCCCc1cc(=O)oc2c(C(CCN(CC)CC)c3cc(OC)c(OC)c(OC)c3)c(OC)cc(OC)c12 (stereo not given)	active: 18.4 µM	
Cc1ccc(C)c(NC(=O)C(Sc2nc3ccc(C)cc3[nH]2)c2ccccc2)c1 (stereo not given)	inconclusive [cytotoxic, single point]	
O=C(O)COc1ccccc1/C=C1\SC(=S)N(c2cccnc2)C1=O	inactive	
O=C(/C=C/c1ccccc1)OCCN1C(=O)c2ccccc2C1=O	inactive	
CN1CCc2c(sc3nc(SCC(=O)NCc4ccco4)n(-c4ccccc4)c(=O)c23)C1	inactive	
CC(C)(C)c1ccc(/C=N/OCC(=O)NCc2ccccc2)cc1	inconclusive [cytotoxic, single point]	
CC(=O)c1ccc(OCCCC(=O)NNC(=O)c2ccccn2)cc1	inconclusive [cytotoxic, single point]	
CCS(=O)(=O)Nc1ccc(-c2cc(-c3ccccc3)c3cc(C)ccc3n2)cc1	inconclusive [cytotoxic, single point]	
Oc1c(Br)cc(C=Nc2ccc3nc(-c4ccccc4)[nH]c3c2)c(O)c1Br	inconclusive [cytotoxic, partial curve]	
C=C(C)C(=O)O[C@H]1C/C(C)=C\C(=O)/C=C(\C)[C@H](O)[C@@H]2OC(=O)C(=C)[C@@H]21	inconclusive [cytotoxic, single point]	
Nc1cc(=O)[nH]c(SCC(=O)N2CCCc3ccccc32)n1	inactive	
Nc1cc(=O)[nH]c(SCC(=O)N2N=C(c3ccc4ccccc4c3)CC2c2ccccc2)n1 (stereo not given)	inconclusive [cytotoxic, single point]	
CCOc1cccc(-c2c(C(=O)N/N=C(\C)c3ccccn3)nnn2-c2nonc2N)c1	inconclusive [cytotoxic, full curve]	
CCOc1cc(/C=C2\COc3ccccc3C2=O)ccc1OCC(=O)N(C)C	active: 23.1 µM	
CCOc1ccc(C(=O)Nc2ccc(-c3nc4ccccc4[nH]3)cc2)cc1[N+](=O)[O-]	inconclusive [cytotoxic, single point]	
COC(=O)[C@]12CCCCC=C1N(CCc1ccc(OC)c(OC)c1)C(=O)[C@H](CC(=O)NCCc1ccccc1OC)C2	inactive	
O=C(c1ccc([N+](=O)[O-])s1)N1CCN(c2ccccn2)CC1	inconclusive [cytotoxic, single point]	
COc1cccc(C(=O)NCC(C)(C)SCc2ccc(F)cc2)c1	inactive	
O=C(N/N=C/c1c(O)ccc2ccccc12)c1cccc(C(F)(F)F)c1	active: 2.31 µM	

SMILES	Potency	activity, negative = toxicity
CCc1ccccc1NC(=O)C1=CN2CCS(=O)(=O)N=C2C=C1	inactive	
O=C(COc1ccccc1Cl)Nc1ccc(N2CCN(C(=O)c3ccccc3)CC2)cc1	inconclusive [cytotoxic, single point]	
COc1cc(C(=O)Nc2ccc(C)cn2)c([N+](=O)[O-])cc1OC	inactive	
CCCCN(C(=O)CC1CCCC1)c1c(N)n(Cc2ccccc2)c(=O)[nH]c1=O	inactive	
Cn1cc(CN2CCC(C(O)c3cccs3)CC2)c(-c2cccc(Cl)c2)n1 (stereo not given)	inconclusive [cytotoxic, single point]	
CCN1C(=O)/C(=C2/C(=O)N3c4c(cc(OC(C)=O)cc42)C(C)=CC3(C)C)SC1=S	inactive	
Cc1ccc(C(=O)COC(=O)c2cn3ccccc3n2)cc1	inactive	
Cc1ccc(OCCCC(=O)NCc2ccco2)cc1	inactive	
COc1ccc(CCn2c(=N)c(C(=O)NCC3CCCO3)cc3c(=O)n4cccc(C)c4nc32)cc1 (stereo not given)	inactive	
CCC1CCCCN1C(=O)c1ccc(OC2CCN(C(=O)C3CC3)CC2)cc1 (stereo not given)	inactive	
CC1=C(Nc2ccc(C(=O)O)cc2)C(=O)c2ccccc2C1=O	inconclusive [cytotoxic, partial curve]	
CCc1ccc(NC(=O)c2cc3c(C)nc4ccccc4c3o2)cc1	inconclusive [cytotoxic, single point]	
N#Cc1c(NC(=O)CSc2ncc(-c3ccccc3)n2CC2CCCO2)sc2c1CCCC2 (stereo not given)	inconclusive [cytotoxic, full curve]	
NC(=O)c1ccc2c(=O)n3c(-c4cc(Cl)c(N)c(Cl)c4)csc3nc2c1	inconclusive [cytotoxic, partial curve]	
COc1ccccc1C(=O)Nc1ccc2c(c1)nc1n2CCN(C2CCCCC2)C1	inconclusive [cytotoxic, partial curve]	
C[N+]1(CC(=O)OC2CCCCCCCCCCC2)CCCC1	inconclusive [cytotoxic, partial curve]	
C=CCC1(CC=C)CCCN1C(=O)c1cc(COc2ccc(C)nc2)on1	active: 2.91 µM	
O=C(CNCc1ccc(F)cc1)Nc1cc(S(=O)(=O)N2CCOCC2)ccc1Cl	inactive	
O=C(Cc1ccc([N+](=O)[O-])cc1)Nc1cccc(C(=O)N2CCCC2)c1	inactive	
CC(C)C[C@H]1CN([C@@H](Cc2ccccc2)CN2CCC[C@@H]2CN2C(=O)C(=O)NC[C@@H]2Cc2ccccc2)C(=O)C(=O)N1CC1CCCCC1	active: 16.4 µM	
O=C(NCCO)C(=O)c1c(-c2ccc(Cl)cc2)cc2ccccn12	inactive	
CC(=O)O[C@H]1C(=O)[C@]2(C)[C@H]([C@H](OC(=O)c3ccccc3)[C@]3(O)C[C@H](OC(=O)[C@H](O)[C@@H](NC(=O)c4ccccc4)c4ccccc4)C(C)=C1C3(C)C)[C@]1(OC(C)=O)CO[C@@H]1C[C@@H]2O	active: 0.0146 µM	

Reference: PubChem BioAssay AID686971 (National Center for Advancing Translational Sciences (NCATS), 2013)
